Binding signal data for 22 molecules are collected here from article PMC12136788.

Some of the results follow.

T1: UNK ZnF1-3 (human, UniProt Q9C0B0 31-174)
T1 sequence: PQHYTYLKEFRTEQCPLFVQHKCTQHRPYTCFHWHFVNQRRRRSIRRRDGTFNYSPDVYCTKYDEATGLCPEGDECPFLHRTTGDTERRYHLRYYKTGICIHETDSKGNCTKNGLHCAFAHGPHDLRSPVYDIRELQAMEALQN

B1: 91030778_91034648_4396_CDS_ENSG00000140575_ENST00000268182|human|control|control (ssRNA)
RNA: GGGAGUUCUACAGUCCGACGAUCUACAGAUUUUGACUUUUUCAUCUUGUCAGGUGUUUUGGCAUCACGGAUAGCACGUCUCUGCAUGGCUCUCUGAUGUUCUGCUUCCUGUUCACUGGUGGCUGGUGUUUCUAGGAUUUCAGUCAACAGAGGAUUGAGCAUCA
B2: 142516462_142516582_550_CDS_ENSMUSG00000004591_ENSMUST00000043812|mouse|control|control (ssRNA)
RNA: GGGAGUUCUACAGUCCGACGAUCUUUUUUCAAAAUGUUGUCUACAUAAGCCAAAUUUUUCUUAUCUGUUGUAACUUUCCUCAGGUUUUCAGCUCCUUCUUUGAUUUUCAGUUCUUUCCUUAUUUCUCUCUUUAUUCGAUCCUUCAACAGAGGAUUGAGCAUCA
B3: chr3:9412954:9412955:+_ENSG00000134077_ENST00000452837|hu_mus|hu_hu_hu_mus_False|8_108 (ssRNA)
RNA: GGGAGUUCUACAGUCCGACGAUCGGUUGAUACAUCCUCUUUGAUGGCUGGAUUUUCAUAAUAGUCCAAGAUAUGUGAAUCUGAAGUGCUGCUGGCAUGCUUUUUCUUACCAUCUUUCUCAUCUGCUUUGACUUCUUGUCCACACAACAGAGGAUUGAGCAUCA
B4: chr13:14146135:14146136:-_ENSMUSG00000021302_ENSMUST00000170957|mus_mus|motif|central (ssRNA)
RNA: GGGAGUUCUACAGUCCGACGAUCAGUGUAUGCAAAAGAACCUACAUCCUCCAGGUACUGCACACAAUACUUUUUAAUAUCGGUAUUCUCUGUUCUCUGGCGCAGGAUGUUCUGUACCUGGGUGCUUUCUGGCCUUGACCAAAUCAACAGAGGAUUGAGCAUCA
B5: chr18:24770415:24770416:+_ENSMUSG00000024271_ENSMUST00000025120|mus_hu|motif|central (ssRNA)
RNA: GGGAGUUCUACAGUCCGACGAUCAUAAACAGGUCCUUCAUGGCCUUGAAGAUGCACUGCUUUUAAAAGCUGAUUAUCCUCGGUUUCCCAGUGAAUCACUUGAUUAUCAGAUCCUCCAGAAACUAAUUCAGUAGAAGGGGAGCCCAACAGAGGAUUGAGCAUCA
B6: chr9:88635815:88635816:+_ENSG00000135040_ENST00000361671|hu_mus|FALSE|FALSE (ssRNA)
RNA: GGGAGUUCUACAGUCCGACGAUCUCCUCCUGCUAAGAGCUUCAUAACCACAAAGUUGGGCUUGGCAACCUUCAGGAUUCUACUGACCUCACGGUCUGGAUUGGGGAUAUUUUCAAGGAUCAUUUUUGCCUGCUGAAAGUGCUUCAACAGAGGAUUGAGCAUCA
B7: chr4:132326513:132326514:+_ENSMUSG00000028884_ENSMUST00000102561|mus_mus|FALSE|FALSE (ssRNA)
RNA: GGGAGUUCUACAGUCCGACGAUCAAUAGUGACCUGUGAAAUCUCGACAUCUCCAAUUCUGAACACUUCAUCAGUCAGAGUAGCAGAAAGCAGCUGGGAUAUGGUACAGGGCACAAUAUGCUGGGCUCGGACUCUCGAUUUCUUCAACAGAGGAUUGAGCAUCA
B8: 2886273_2895739_470_CDS_ENSG00000087274_ENST00000398129|human|control|control (ssRNA)
RNA: GGGAGUUCUACAGUCCGACGAUCUGUGAUAUGAUUGUAGAUAAGCUGAGACCACCCAAAGAGAUCUGCUAGUCUAUAAAACGCUGCCAAUUUACACCGUAAUAACUUCUCUCCUUUGUCAUACGCAAUAGAAUCAGAUCCUCUCAACAGAGGAUUGAGCAUCA
B9: chrX:69798090:69798091:-_ENSMUSG00000031343_ENSMUST00000055966|mus_mus|mus_mus_mus_hu_False|48_78 (ssRNA)
RNA: GGGAGUUCUACAGUCCGACGAUCAAGUCCCCGGGUUCUUGUCGUCUUGAUUCCCCUUGGCUAGUGGUUCCAGGGAGAAUAUUAAUCAGGAGAAGAAUCCCAAGGCUGGUCAUGUAACAGUGACUUGUUUGUGUGAUUAUCAUCCAACAGAGGAUUGAGCAUCA
B10: chr12:42180722:42180723:-_ENSMUSG00000036295_ENSMUST00000043884|mus_hu|mus_mus_mus_hu_True|48_108 (ssRNA)
RNA: GGGAGUUCUACAGUCCGACGAUCCUGUAGGAGCAGAAUCUGUGUGUUAGCUGGCAAUCUGGCUGGGAAAGUUAAAAGACCUAAAUCAUUACAGUCCACUGUAGAUGCUUCCAUAUAAAUGGAUCUGGGUGUAAACCAAGGCCUCAACAGAGGAUUGAGCAUCA
B11: chr7:56126341:56126342:+_ENSG00000146731_ENST00000540286|hu_mus|hu_hu_hu_mus_True|8_68 (ssRNA)
RNA: GGGAGUUCUACAGUCCGACGAUCCAUGUUUCUCCUCUUGGCUCUGCGCAGAGCUACGAUCCCUUCUUUUGAAAGAGCAUCUAAGGAAAAGGGGUCAAUCCCCUUUUGAUUAAUAACGACAAAUCCUUUAUCUGAAUCACCACACAACAGAGGAUUGAGCAUCA
B12: chr7:75932113:75932114:+_ENSG00000106211_ENST00000248553|hu_hu|hu_hu_hu_mus_False|18_108 (ssRNA)
RNA: GGGAGUUCUACAGUCCGACGAUCCUGCGACCACUCCUCGGGCAACCGGGGCACCCCGAAAGCUUGAUCGAAGAGGCGGCUGUGUGCAGGGUACCAGUCCCGGAAUGGUUCCCAGCUGCCCCGCAGGAGCAGCGAGAAGGGCACCAACAGAGGAUUGAGCAUCA
B13: chr7:54823571:54823572:-_ENSG00000132432_ENST00000352861|hu_mus|hu_hu_hu_mus_False|8_98 (ssRNA)
RNA: GGGAGUUCUACAGUCCGACGAUCUCCCAUGAUAGCAAAUCCUAUUGCUGUAGCCAUGGCAAUCUUCUGGAAUUCUUUUCUGUCGGGUUUGGUGCAUCUUUUAACCAGCCGAAUUGAGUCCUUUACAAACUGCCGACUGGGCUCCAACAGAGGAUUGAGCAUCA
B14: chr6:72301320:72301321:+_ENSMUSG00000058706_ENSMUST00000077783|mus_mus|motif|central (ssRNA)
RNA: GGGAGUUCUACAGUCCGACGAUCUCUUUGAGGACCACAUAAACACAUAAAAGGCCUCUGCAGAACACUUUGUUCAUCGGGCGGUUCCUUCAUCAAGAAGUGGGAAUAACGGCAAAUUUGUAGGUGUCGGGUCCUCAGAUUCUUCAACAGAGGAUUGAGCAUCA
B15: chr1:122009976:122009977:-_ENSMUSG00000026385_ENSMUST00000027634|mus_hu|FALSE|FALSE (ssRNA)
RNA: GGGAGUUCUACAGUCCGACGAUCUUUAAUUGAUUUCAGAUAAAAACUACUCAAGGAAAGUCAGUAAUCGUUUUAGCCCCUAAUCUGUUAGAGCCGUAUGGUGAGCAGCCUUGAGUAGCUGGUUUAACUGGUUAUUUUCCCGAACAACAGAGGAUUGAGCAUCA
B16: chr2:91460361:91460362:+_ENSMUSG00000040549_ENSMUST00000099716|mus_hu|FALSE|FALSE (ssRNA)
RNA: GGGAGUUCUACAGUCCGACGAUCAUACACUAGGCCUGCUGAGGCCAUUUUAAACUAUGAGGACUUCUAGUUUAGUAAACUAAAGCUGCAGGGUGCCGGGGGAGUGGGGCAGCUUCAUUUGCGACUGCUCUUUAUUCUCUCCAGCAACAGAGGAUUGAGCAUCA
B17: 118501947_118502067_1989_CDS_ENSG00000019144_ENST00000356063|human|control|control (ssRNA)
RNA: GGGAGUUCUACAGUCCGACGAUCAAGGCCUCGUGAGGGCCUCCGGCCUGCCAGUGCCAAUGCUGCGGUGGCCUCCCCAAUGCUGGGAAGCUCCCCAGCCUCAGGUCCCCCAUCAGCCCGGCUGUAUUCGGCACACAGGUUCAGCAACAGAGGAUUGAGCAUCA
B18: chr7:141450121:141450122:+_ENSG00000106028_ENST00000265304|hu_mus|hu_hu_hu_mus_True|38_108 (ssRNA)
RNA: GGGAGUUCUACAGUCCGACGAUCUCAUCCUUUCUACGCCUUUUCUUUUGUCUGGUCACUCAGAAAUAUAAUGUUAUCAGCUAUGAUUGUUGUUGCUUGUCGCCUCACAUUGUUUUUAUCCAUGUACUCGCCAUAGUCCACUUUCAACAGAGGAUUGAGCAUCA
B19: chr4:148551591:148551592:-_ENSMUSG00000063077_ENSMUST00000060537|mus_hu|mus_mus_mus_hu_False|8_28 (ssRNA)
RNA: GGGAGUUCUACAGUCCGACGAUCACCUGACAAAAUUAAAUAUCCCUGUAAAUUAGACAAUAAGCAGCAGGCAACAAAGUCUUUGCUUUGGAAUAUGUGCCAGGAAAAAUCAUGUUUUUUUUAGAUCACACCUUUCAGUUCACACAACAGAGGAUUGAGCAUCA
B20: chr9:131455196:131455197:+_ENSG00000119335_ENST00000372688|hu_hu|motif|central (ssRNA)
RNA: GGGAGUUCUACAGUCCGACGAUCAAAUUCUUUGGAGAGAACUUUAUUUUCAAAGUAAGGAUUUUCAUCAAAAUAAAAAUCGGUUCUGUAACCUGAUUUAAUAUCUUCAAAUUCUGUCACUUCAACUCUGGUCAAAUAAUGCAGCAACAGAGGAUUGAGCAUCA
B21: chr8:95500983:95500984:-_ENSG00000164944_ENST00000437199|hu_hu|hu_hu_hu_mus_True|18_88 (ssRNA)
RNA: GGGAGUUCUACAGUCCGACGAUCAGAACACAUCUAUCGAGUAAAGGGAGCGUACAUACGGCCUCUACCACUGCCUCCACUAACAAACUUUCCUCUCGAGCCUCCACUGCCGCUAUUUUGCACUAGCCAGGACGGUCCCAGGCCCAACAGAGGAUUGAGCAUCA
B22: chr15:52844276:52844277:-_ENSG00000128989_ENST00000249822|hu_mus|FALSE|FALSE (ssRNA)
RNA: GGGAGUUCUACAGUCCGACGAUCAUCCGGGGCUGCAGCAGGAAGCUGCUUGUUCUUCAUCUUUGCUUUUGCCAUGUUGUAGUCCCCAGAAUCAAAAUACUUUUGCCCUUUCUGCAAUCUUUUCCUUAAAAAAUCAGACCCUCCCAACAGAGGAUUGAGCAUCA

The assay deals with T1, UNK ZnF1-3. The assay can be described thus: nsRBNS (natural sequence RNA bind-n-seq); RBNS binding buffer (assumed for nsRBNS): 25 mM Tris pH 7.5, 150 mM KCl, 3 mM MgCl2, 0.01% Triton X-100, 500 ug/ml BSA, 20 U/ml SUPERase-In, 4 C; UNK is unkempt and MSI1 is Musashi-1; names of the RNAs are library labels; protein concentration not given here; high values mean tight binding.
As to B1, the binding signal stood at 0.352 enrichment R.
B2 registered a binding signal of 0.194 enrichment R.
With B3 the figure was 0.388 enrichment R; with B4, 0.571 enrichment R.
With B5 the figure was 0.853 enrichment R; with B6, 1.18 enrichment R; with B7, 0.931 enrichment R.
With B8 the figure was 1.29 enrichment R; with B9, 0.648 enrichment R; with B10, 1.09 enrichment R.
Molecule B11 yielded a binding signal of 1.67 enrichment R.
In turn, B12 had a binding signal of 0.914 enrichment R.
With B13 the figure was 0.597 enrichment R.
With B14 the figure was 0.821 enrichment R; with B15, 0.61 enrichment R.
With B16 the figure was 0.635 enrichment R; with B17, 0.995 enrichment R; with B18, 0.386 enrichment R.
Turning to B19, the binding signal came out at 1.02 enrichment R.
With B20 the figure was 0.575 enrichment R.
With B21, the binding signal is 1.41 enrichment R.
B22 came in with a binding signal of 0.637 enrichment R.
